Assay results published in PubChem BioAssay AID1508642 (National Center for Advancing Translational Sciences (NCATS), 2021).
Out of some 43,000 compounds screened, about 200 (0.47%) were called active. About 12% were inconclusive and are not listed. The call rests on the fitted dose curve; in most records, active means well fitted cell-killing curve with a large enough effect; inconclusive means small, poorly fitted or top-dose-only effect, or effect the other way; inactive means flat fitted curve, though single readings scatter. The list shows a part of the results.

test: Cell viability qHTS assay in S16 Pmp22-F2sN cells; conditions: S16 Pmp22-F2sN Schwann cells viability, CellTiter-Glo, 24 h; series mostly up to 57.5 µM; activity change, negative = cytotoxicity: at the top concentration; further: nearly all actives have a fitted effect of over 65% in size
In short: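 Viability was measured by CellTiter-Glo luminescence (15 min, room temperature). This followed 24 h at 37 °C of compound exposure (23 nL pin transfer) in S16 Pmp22-F2sN Schwann cells, 500-1,000 per well.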
On the % scale 0 is the no-effect control and ±100 the full control effect.

Compound	activity change, negative = cytotoxicity
Cc1nncn1-c1ccc(C(=O)Nc2cc(F)ccc2F)cc1	inactive: -5.31%
CCN(CC)c1ccc(NC(=O)c2sc3nc4c(cc3c2N)CN(C)CC4)cc1	inactive: -2.83%
CCn1c(C(=O)N2CCCC(C(=O)N3CCN(c4cc(C)ccc4C)CC3)C2)cc2sccc21 (stereo unspecified)	inactive: -2.85%
COc1ccc(-n2c(=O)c3ccccc3n(CC(=O)NCCc3ccc(OC)c(OC)c3)c2=O)cc1	inactive: -9.73%
Cc1ccccc1CCNC(=O)c1cc2cc(S(=O)(=O)N3CCCCC3)ccc2n1C	inactive: 5.12%
COc1ccc(NC(=O)c2cc3c(=O)n(Cc4cccnc4)ccc3nc2C)cc1OC	inactive: -0.0646%
COc1ccc(Cl)cc1NC(=O)CCCN1C(=O)C(c2ccccc2)Oc2cccnc21 (stereo unspecified)	inactive: -13.4%
COc1cc2c(cc1OC)C(COc1cc(C)cc(C)c1)N(C(=O)COc1ccccc1)CC2 (stereo unspecified)	inactive: 2.07%
COc1ccc(C)cc1NS(=O)(=O)c1cc2c3c(c1)CC(=O)N3CCC2	inactive: -5.87%
COc1ccc(NC(=O)CSc2nc3nc(C)c(Cc4ccccc4Cl)c(C)n3n2)cc1OC	inactive: 6.51%
CCn1c(=N)c(C(=O)NC2CCCCC2)cc2c(=O)n3cc(C)ccc3nc21	inactive: 10.2%
CCC1CN(C(=O)Nc2ccc(C)c(F)c2)c2ccccc2S1 (stereo unspecified)	inactive: -17.6%
Cc1cc2c(cc1S(=O)(=O)CCC(=O)NCCc1ccccc1)OCC(=O)N2	inactive: -0.645%
CC(C)(C)C(=O)NC1(C(F)(F)F)C(=O)Nc2c1c(=O)[nH]c(=O)n2-c1ccccc1 (stereo unspecified)	inactive: 12.9%
CCOc1ccc(-n2nc3cc(C)c(NC(=O)c4cc(OCC)c(OCC)c(OCC)c4)cc3n2)cc1	inactive: 1.76%
O=C1CN(C(=O)c2ccc(S(=O)(=O)N3CCCC3)cc2)C(c2ccccc2)c2cc(Br)ccc2N1 (stereo unspecified)	inactive: -26%
CCOc1ccc(-c2nnc(SCC(=O)NCc3ccccc3)o2)cc1	inactive: 5.14%
Cc1ccc(NC(=O)CN2CCSc3ccc(S(=O)(=O)N4CCCC4)cc32)cc1C	inactive: -4.96%
COc1ccc(Cc2nc3ccccc3n2Cc2ccccc2F)cc1	inactive: -3.83%
CC(=O)c1ccc(NC(=O)CC(c2cccs2)N2Cc3ccccc3C2=O)cc1 (stereo unspecified)	inactive: 10.5%
CCN(C(=O)Cn1cnc2sc(C)c(S(=O)(=O)N3CCN(c4ncccn4)CC3)c2c1=O)c1ccccc1F	inactive: 0.293%
CCOc1ccc(-c2cc(-c3nc(-c4ccc(OC)c(OC)c4)no3)[nH]n2)cc1	inactive: 1.69%
Cc1ccccc1CSc1ncc(CO)n1Cc1ccc(F)cc1	inactive: -0.131%

Compound	activity change, negative = cytotoxicity
COc1ccc(-c2nnc(C3CCN(S(=O)(=O)c4ccc(C)c(C)c4)CC3)o2)cc1	inactive: 3.31%
COc1ccc(CCNC(=O)CCc2c(C)c3cc4c(C)coc4c(C)c3oc2=O)cc1OC	inactive: 0.24%
CC(O)CNc1nc2c(c(=O)n(Cc3ccc(Cl)cc3)c(=O)n2C)n1C (stereo unspecified)	inactive: -20.8%
CCOC(=O)c1ccc(NC(=O)c2ccc(=O)n(Cc3cccc(C)c3)c2)cc1	inactive: -9.49%
COc1ccc(-c2cn3cccnc3n2)cc1NC(=O)c1cc(C)cc(C)c1	inactive: 6.71%
Cc1cc(Cl)ccc1OCC(=O)N(Cc1ccco1)Cc1ccco1	inactive: -1.1%
CCN(c1ccccc1)c1nnc(NC(=O)Nc2ccc(Br)cc2F)s1	inactive: 8.86%
O=C(Nc1ccc(Br)cc1F)N1CCC2(CC1)Oc1ccccc1C(=O)N2Cc1ccccc1F	inactive: -2.48%
COc1ccc(C2C(C(=O)Nc3ccc(C)cc3C)=C(C)Nc3nc4ccccc4n32)c(OC)c1 (stereo unspecified)	inactive: 8.89%
COc1ccc2occ(CC(=O)Nc3ccc(S(=O)(=O)Nc4nc(C)cc(C)n4)cc3)c2c1	inactive: 1.47%
O=C1CSC2(C(=O)N(Cc3ccccc3)c3ccccc32)N1c1ccc(Cl)cc1 (stereo unspecified)	inactive: 5.49%
CCOc1ccc2c(c1)NC(c1cccs1)=NC(c1ccc(F)cc1)=N2	inactive: -19.6%
COc1cccc2c1Oc1ncccc1N(C(=O)CCC(=O)NCc1ccccc1Cl)C2	inactive: 5.83%
O=C(CN1C(=O)COc2ccc(S(=O)(=O)Nc3ccccc3)cc21)Nc1cccc(Cl)c1	inactive: 4.27%
COC(=O)c1ccc(Cn2nnc3c(=O)[nH]c(C4CCCN(S(=O)(=O)c5cccc(Cl)c5)C4)nc32)cc1 (stereo unspecified)	inactive: -16.1%
CCC(C)NC(=O)C1=CC(c2ccc3c(c2)OCO3)=NS(=O)(=O)N1C (stereo unspecified)	inactive: -0.654%
COC(=O)c1cc(NC(=O)Cn2nc(-c3ccc(C)c(C)c3)ccc2=O)cc(C(=O)OC)c1	inactive: -15.6%
CC(C)(C)c1ccc(C(=O)N2CCCCC2CCN2CCCCC2)cc1 (stereo unspecified)	inactive: -11.9%
Cc1ccc(OCCn2nnc3sc4c(c3c2=O)CCC(C)C4)cc1 (stereo unspecified)	inactive: 9.53%
CCOc1ccc(C(=O)N2CCC(c3noc(-c4ccc(S(=O)(=O)N5CCCC5)cc4)n3)CC2)cc1	inactive: -15.3%
CCc1c(-c2ccccc2)nc2ccccc2c1C(=O)NCc1ccc(C)cc1	inactive: -14%
CN(C1CCCCC1)S(=O)(=O)c1ccc2c(c1)c(=O)c(C(=O)N1CCN(c3ccccc3F)CC1)cn2C	inactive: -0.937%
Cc1cc(C)cc(NS(=O)(=O)c2ccc3[nH]cc(C(=O)NCc4ccccc4Cl)c(=O)c3c2)c1	inactive: 10.6%
